Test results published in paper PMC5893904.
Results are given in words; binding and its absence hold for the method and conditions named. Binding seen in cells or lysates may run through a third protein. Each block holds one binder with its values, some of them ahead of it.

Molecular target: T1, FdC1, full-length coding sequence in pSPYCE-35S (BiFC bait) (Arabidopsis thaliana) (UniProt O23344)
T1 sequence: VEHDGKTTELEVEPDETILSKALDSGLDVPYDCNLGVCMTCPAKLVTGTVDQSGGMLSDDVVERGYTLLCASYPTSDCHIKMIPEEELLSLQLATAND
Test: split reporter; BiFC in epidermal cells of tobacco leaves after Agrobacterium co-infiltration; FdC1 in pSPYCE-35S (bait), partners in pSPYNE-35S (prey); 48 h darkness; confocal microscopy

- binding: no binding
B1: LeafFNR2, full-length coding sequence in pSPYNE-35S (BiFC prey) (enzyme, UniProt Q8W493 58-369)
chain: ITTETDTPTPAKKVEKVSKKNEEGVIVNRYRPKEPYTGKCLLNTKITADDAPGETWHMVFSHQGEIPYREGQSVGVIADGIDKNGKPHKVRLYSIASSALGDLGNSETVSLCVKRLVYTNDQGETVKGVCSNFLCDLAPGSDVKLTGPVGKEMLMPKDPNATVIMLATGTGIAPFRSFLWKMFFEKHDDYKFNGLAWLFLGVPTTSSLLYQEEFDKMKAKAPENFRVDYAISREQANDKGEKMYIQTRMAQYAAELWELLKKDNTFVYMCGLKGMEKGIDDIMVSLAANDGIDWFDYKKQLKKAEQWNVEVY

- binding: no binding
B2: LeafFNR1, full-length coding sequence in pSPYNE-35S (BiFC prey) (enzyme, UniProt Q9FKW6 50-360)
chain: VTTDTTEAPPVKVVKESKKQEEGIVVNKFKPKNPYTGRCLLNTKITGDDAPGETWHIVFTTEGEVPYREGQSIGVIPEGIDKNGKPHKLRLYSIASSAIGDFGDSKTVSLCVKRLVYTNDGGEIVKGVCSNFLCDLKPGDEAKITGPVGKEMLMPKDPNATIIMLGTGTGIAPFRSFLWKMFFEEHEDYKFNGLAWLFLGVPTSSSLLYKEEFEKMKEKNPDNFRLDFAVSREQTNEKGEKMYIQTRMAEYAEELWELLKKDNTFVYMCGLKGMEKGIDDIMVSLAAKDGIDWLEYKKQLKRSEQWNVEVY
